These are yes or no findings as the source states them, for the method shown. In cells and extracts the contact can be indirect. Some binding calls cover weakened binding; strength is not graded here. For some assays here: Sequences can lack the tags named with a protein.
Key:
[1] = biological target: GST-MIER1β fusion protein (full-length) (human) (UniProt Q8N108); assay: pull-down; GST pull-down: 0.35 μg of GST or equimolar amounts of GST fusion proteins with 100,000 cpm of 35S-labelled in vitro translation products; as in ref. 7; only the target purified
[2] = biological target: T1, GST-MIER1(1–283) fusion protein, N-terminal half of MIER1β (human) (UniProt Q8N108); assay: as above
T1 sequence: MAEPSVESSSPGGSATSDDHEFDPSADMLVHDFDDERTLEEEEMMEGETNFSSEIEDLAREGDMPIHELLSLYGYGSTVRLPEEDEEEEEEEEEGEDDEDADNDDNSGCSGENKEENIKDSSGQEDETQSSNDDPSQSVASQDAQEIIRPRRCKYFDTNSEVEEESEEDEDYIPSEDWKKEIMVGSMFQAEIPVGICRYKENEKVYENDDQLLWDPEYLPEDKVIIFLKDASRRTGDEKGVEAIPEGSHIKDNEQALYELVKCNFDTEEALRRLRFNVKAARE

Protein sequences, listed by entry. Tags and fused reporters are not part of them. Lines headed by an entry give the natural chain unless they say otherwise; changes in a name come on top.
UniProt P45481: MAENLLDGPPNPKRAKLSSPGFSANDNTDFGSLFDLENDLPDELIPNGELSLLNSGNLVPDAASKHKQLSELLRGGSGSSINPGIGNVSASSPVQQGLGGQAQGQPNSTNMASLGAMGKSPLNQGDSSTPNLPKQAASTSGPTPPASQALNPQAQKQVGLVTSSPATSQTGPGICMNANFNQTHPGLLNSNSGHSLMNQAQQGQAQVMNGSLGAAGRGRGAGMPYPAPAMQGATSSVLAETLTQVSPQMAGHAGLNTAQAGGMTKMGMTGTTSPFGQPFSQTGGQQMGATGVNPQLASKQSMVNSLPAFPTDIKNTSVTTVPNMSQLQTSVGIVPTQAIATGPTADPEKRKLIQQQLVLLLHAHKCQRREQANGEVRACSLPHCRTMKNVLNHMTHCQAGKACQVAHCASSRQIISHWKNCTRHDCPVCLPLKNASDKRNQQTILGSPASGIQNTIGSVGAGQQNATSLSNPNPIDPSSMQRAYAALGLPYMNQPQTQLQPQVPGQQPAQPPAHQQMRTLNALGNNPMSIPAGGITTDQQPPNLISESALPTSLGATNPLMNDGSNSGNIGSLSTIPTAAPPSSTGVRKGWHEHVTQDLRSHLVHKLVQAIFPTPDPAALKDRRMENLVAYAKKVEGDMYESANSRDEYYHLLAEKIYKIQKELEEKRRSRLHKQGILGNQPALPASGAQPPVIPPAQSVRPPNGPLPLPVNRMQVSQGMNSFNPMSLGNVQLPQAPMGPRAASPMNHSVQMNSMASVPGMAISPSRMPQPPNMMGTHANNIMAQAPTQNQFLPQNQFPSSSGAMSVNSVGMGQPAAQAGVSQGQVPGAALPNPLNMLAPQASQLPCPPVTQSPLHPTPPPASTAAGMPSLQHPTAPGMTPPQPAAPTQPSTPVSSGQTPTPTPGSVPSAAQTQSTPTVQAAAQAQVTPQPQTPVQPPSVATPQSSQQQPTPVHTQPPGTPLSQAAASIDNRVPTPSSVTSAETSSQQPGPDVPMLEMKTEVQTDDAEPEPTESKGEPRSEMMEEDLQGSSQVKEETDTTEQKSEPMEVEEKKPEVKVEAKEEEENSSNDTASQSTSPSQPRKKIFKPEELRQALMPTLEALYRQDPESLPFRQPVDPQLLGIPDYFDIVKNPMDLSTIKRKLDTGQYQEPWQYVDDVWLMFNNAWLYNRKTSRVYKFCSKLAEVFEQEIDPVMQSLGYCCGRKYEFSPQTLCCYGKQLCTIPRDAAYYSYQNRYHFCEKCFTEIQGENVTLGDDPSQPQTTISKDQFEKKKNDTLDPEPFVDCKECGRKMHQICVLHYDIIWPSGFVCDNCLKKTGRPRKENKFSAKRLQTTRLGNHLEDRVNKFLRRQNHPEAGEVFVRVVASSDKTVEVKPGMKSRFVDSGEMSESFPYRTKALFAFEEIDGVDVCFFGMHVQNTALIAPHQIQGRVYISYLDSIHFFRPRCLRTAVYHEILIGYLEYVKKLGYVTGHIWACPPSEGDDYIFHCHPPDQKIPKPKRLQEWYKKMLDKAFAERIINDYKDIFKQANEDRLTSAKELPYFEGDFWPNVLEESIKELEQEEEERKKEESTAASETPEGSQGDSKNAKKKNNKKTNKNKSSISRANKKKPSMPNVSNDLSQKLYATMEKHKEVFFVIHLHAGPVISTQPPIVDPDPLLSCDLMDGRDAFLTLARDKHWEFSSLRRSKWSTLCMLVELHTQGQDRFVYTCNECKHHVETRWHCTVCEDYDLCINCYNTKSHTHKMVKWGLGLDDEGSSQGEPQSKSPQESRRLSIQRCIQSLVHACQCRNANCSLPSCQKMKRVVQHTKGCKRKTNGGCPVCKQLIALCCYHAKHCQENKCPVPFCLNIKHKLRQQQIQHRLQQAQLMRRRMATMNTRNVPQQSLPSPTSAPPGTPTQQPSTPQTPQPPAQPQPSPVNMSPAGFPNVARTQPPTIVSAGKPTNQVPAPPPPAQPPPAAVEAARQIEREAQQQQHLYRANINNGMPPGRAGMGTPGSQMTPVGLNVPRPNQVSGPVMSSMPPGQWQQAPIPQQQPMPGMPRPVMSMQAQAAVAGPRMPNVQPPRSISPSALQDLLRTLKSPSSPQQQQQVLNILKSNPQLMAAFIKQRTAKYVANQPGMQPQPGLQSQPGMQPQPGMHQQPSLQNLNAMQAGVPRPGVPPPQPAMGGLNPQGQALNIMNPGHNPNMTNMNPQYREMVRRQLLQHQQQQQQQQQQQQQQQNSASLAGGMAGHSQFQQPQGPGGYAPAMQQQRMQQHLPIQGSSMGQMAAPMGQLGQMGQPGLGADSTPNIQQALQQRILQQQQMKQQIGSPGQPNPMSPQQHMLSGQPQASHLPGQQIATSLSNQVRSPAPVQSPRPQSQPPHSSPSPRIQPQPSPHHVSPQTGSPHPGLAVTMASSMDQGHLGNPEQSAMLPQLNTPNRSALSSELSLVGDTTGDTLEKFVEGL

[3] = biological target: myc-tagged full-length MIER1β expressed in HEK293 cells (human) (UniProt Q8N108); assay: co-IP; HEK293 cells co-transfected with flag-CBP(1094–2441) and myc-MIER1β; anti-myc immunoprecipitation, Western blot with anti-flag

binding [1] | binding [2] | binding [3] | Substance
binds | binds | – | CBP(1094–2441), in vitro translated, 35S-labelled (from UniProt P45481 1094-2441) (domain or fragment)
binds | – | – | full-length mouse CBP (Creb-binding protein), in vitro translated, 35S-labelled (from UniProt P45481 1-2441)
– | – | binds | flag-tagged CBP(1094–2441) expressed in HEK293 cells (from UniProt P45481 1094-2441) (domain or fragment)

Substance | binding [1] | binding [2] | binding [3]
CBP(1–1096), in vitro translated, 35S-labelled (from UniProt P45481 1-1096) (domain or fragment) | no binding (tested: equimolar to 0.35 μg GST) | – | –

Source: paper PMC2546418
